# According to the supplement of paper PMC8728848:
# This is one part of the list.
# Key:
# Test in all cases: glycan array binding signal (z-score within array); higher = stronger binding
# Conditions in all cases: glycan notation: IUPAC condensed, linker removed
# [1] = target: GalNAc3S(b1-4)[Fuc(a1-3)]GlcNAc
# Outline: (§1)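 Glycan array data came from 3228 arrays in the Consortium for Functional Glycomics database, and only arrays with an available protein sequence were kept. Glycan names were put into IUPAC-condensed notation, and columns mapping to the same glycan were averaged. The binding signal is a within-array Z-score, averaged across arrays of one protein sequence run at different concentrations or buffers and across linkers. A negative Z-score can be read as non-binding.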
# GalNAc4S6S(b1-4)GlcNAc = target: GalNAc4S6S(b1-4)GlcNAc
# Outline: as §1
# GalNAc6S(b1-4)GlcNAc = target: GalNAc6S(b1-4)GlcNAc
# Outline: as §1
# Glc(a1-4)Glc = target: Glc(a1-4)Glc
# Outline: as §1
# [2] = target: Glc(a1-4)Glc(a1-4)Glc(a1-4)Glc
# Outline: as §1
# Glc(a1-6)Glc(a1-6)Glc = target: Glc(a1-6)Glc(a1-6)Glc
# Outline: as §1
# [3] = target: Glc(a1-6)Glc(a1-6)Glc(a1-6)Glc
# Outline: as §1
# Glc(b1-4)Glc = target: Glc(b1-4)Glc
# Outline: as §1
# Glc(b1-6)Glc = target: Glc(b1-6)Glc
# Outline: as §1
# GlcA(b1-3)Gal = target: GlcA(b1-3)Gal
# Outline: as §1
# GlcA(b1-3)GlcNAc = target: GlcA(b1-3)GlcNAc
# Outline: as §1
# GlcA(b1-6)Gal = target: GlcA(b1-6)Gal
# Outline: as §1
# [4] = target: GlcA3S(b1-3)Gal(b1-4)GlcNAc(b1-2)Man
# Outline: as §1
# [5] = target: GlcA3S(b1-3)Gal(b1-4)GlcNAc(b1-3)Gal(b1-4)Glc
# Outline: as §1
# [6] = target: GlcNAc(a1-3)Gal(b1-4)GlcNAc
# Outline: as §1
# [7] = target: GlcNAc(a1-4)Gal(b1-3)GlcNAc
# Outline: as §1
# [8] = target: GlcNAc(a1-4)Gal(b1-4)GalNAc
# Outline: as §1
# [9] = target: GlcNAc(a1-4)Gal(b1-4)GlcNAc
# Outline: as §1
# [10] = target: GlcNAc(a1-4)Gal(b1-4)GlcNAc(b1-3)Gal(b1-4)Glc
# Outline: as §1
# [11] = target: GlcNAc(a1-4)Gal(b1-4)GlcNAc(b1-3)Gal(b1-4)GlcNAc
# Outline: as §1
# [12] = target: GlcNAc(a1-4)Gal(b1-4)GlcNAc(b1-3)Gal(b1-4)GlcNAc(b1-3)Gal(b1-4)GlcNAc
# Outline: as §1
# [13] = target: GlcNAc(a1-4)Gal(b1-4)GlcNAc(b1-3)Gal(b1-4)[Fuc(a1-3)]GlcNAc(b1-3)Gal(b1-4)[Fuc(a1-3)]GlcNAc
# Outline: as §1
# [14] = target: GlcNAc(a1-6)Gal(b1-4)GlcNAc
# Outline: as §1
# [15] = target: GlcNAc(b1-2)Gal(b1-3)GalNAc
# Outline: as §1
# [16] = target: GlcNAc(b1-2)Man(a1-3)[GlcNAc(b1-2)Man(a1-6)]Man(b1-4)GlcNAc(b1-4)GlcNAc
# Outline: as §1
# [17] = target: GlcNAc(b1-2)Man(a1-3)[GlcNAc(b1-2)Man(a1-6)]Man(b1-4)GlcNAc(b1-4)[Fuc(a1-6)]GlcNAc
# Outline: as §1
# [18] = target: GlcNAc(b1-2)Man(a1-3)[GlcNAc(b1-4)][GlcNAc(b1-2)Man(a1-6)]Man(b1-4)GlcNAc(b1-4)GlcNAc
# Outline: as §1
# [19] = target: GlcNAc(b1-2)Man(a1-3)[GlcNAc(b1-4)][GlcNAc(b1-2)Man(a1-6)]Man(b1-4)GlcNAc(b1-4)[Fuc(a1-6)]GlcNAc
# Outline: as §1
# [20] = target: GlcNAc(b1-2)[GlcNAc(b1-4)]Man(a1-3)[GlcNAc(b1-2)Man(a1-6)]Man(b1-4)GlcNAc(b1-4)GlcNAc
# Outline: as §1
# [21] = target: GlcNAc(b1-2)[GlcNAc(b1-4)]Man(a1-3)[GlcNAc(b1-4)][GlcNAc(b1-2)Man(a1-6)]Man(b1-4)GlcNAc(b1-4)GlcNAc
# Outline: as §1
# [22] = target: GlcNAc(b1-2)[GlcNAc(b1-4)]Man(a1-3)[GlcNAc(b1-4)][GlcNAc(b1-2)[GlcNAc(b1-6)]Man(a1-6)]Man(b1-4)GlcNAc(b1-4)GlcNAc
# Outline: as §1
# [23] = target: GlcNAc(b1-2)[GlcNAc(b1-4)]Man(a1-3)[GlcNAc(b1-4)][GlcNAc(b1-2)[GlcNAc(b1-6)]Man(a1-6)]Man(b1-4)GlcNAc(b1-4)[Fuc(a1-6)]GlcNAc
# Outline: as §1
# [24] = target: GlcNAc(b1-2)[GlcNAc(b1-6)]Man(a1-6)[GlcNAc(b1-2)Man(a1-3)]Man(b1-4)GlcNAc(b1-4)GlcNAc
# Outline: as §1
# [25] = target: GlcNAc(b1-2)[GlcNAc(b1-6)]Man(a1-6)[GlcNAc(b1-2)Man(a1-3)]Man(b1-4)GlcNAc(b1-4)[Fuc(a1-6)]GlcNAc
# Outline: as §1
# [26] = target: GlcNAc(b1-2)[GlcNAc(b1-6)]Man(a1-6)[GlcNAc(b1-4)][GlcNAc(b1-2)Man(a1-3)]Man(b1-4)GlcNAc(b1-4)GlcNAc
# Outline: as §1
# GlcNAc(b1-3)Fuc = target: GlcNAc(b1-3)Fuc
# Outline: as §1
# GlcNAc(b1-3)Gal = target: GlcNAc(b1-3)Gal
# Outline: as §1
# [27] = target: GlcNAc(b1-3)Gal(b1-3)GalNAc
# Outline: as §1
binder,measurement,setting,value
PX9961U-pdi-543-24-543 (Parabacteroides distasonis) (protein) EEPVGEFLPGQVESEENIEGIVTGAYAVLDGYYASDAINSGCSNWQFGDVVSDDAYKGGGGTGDQNQIHLMEIFNANPTGIDFEARWAALYEGIKRCNQAIRLLNGSEVKNKEQRLAEMRFLRGHYYFNLKIIYNQIPWIDETLVDPNEYNKKSNIEFSSDQLWEKILEEFSAAYKVLPESQADYGRPTKMAARAYMAKVYLYQSKWKECLEACDEVIQSGKYELFPDFRNVFLPENDNCSEIIFAIQLSINDGSPNNENGSYGDRLLPPGGPYPVYGFLRPTQNLVNAYKTDVKGLPYNDGKDVSENDYVDVRLDHTLARPNIPFMDVQLYDWTPREASVYGPYSPKKRLVSLNSTYYSPIWPYVNALNFYVIRYADLLLWRAEAAIETGDLETGRKYINMIRERAKNTQHVKTMDQSQDAANYKVGVYDEPFKSKNEAVQALRMERRLEMAHEGIRFFDLVRWGVADEVINAYIAKEKVFRSHLQNAHFVKGKHEYFPIPQSMIDICGTEVMKQNPGY,glycan array binding signal (z-score),[1],-0.27
same,glycan array binding signal (z-score),GalNAc4S6S(b1-4)GlcNAc,-0.413
same,glycan array binding signal (z-score),GalNAc6S(b1-4)GlcNAc,-0.414
same,glycan array binding signal (z-score),Glc(a1-4)Glc,-0.329
same,glycan array binding signal (z-score),[2],-0.168
same,glycan array binding signal (z-score),Glc(a1-6)Glc(a1-6)Glc,-0.457
same,glycan array binding signal (z-score),[3],-0.362
same,glycan array binding signal (z-score),Glc(b1-4)Glc,-0.407
same,glycan array binding signal (z-score),Glc(b1-6)Glc,-0.334
same,glycan array binding signal (z-score),GlcA(b1-3)Gal,-0.393
same,glycan array binding signal (z-score),GlcA(b1-3)GlcNAc,-0.535
same,glycan array binding signal (z-score),GlcA(b1-6)Gal,0.656
same,glycan array binding signal (z-score),[4],-0.428
same,glycan array binding signal (z-score),[5],-0.414
same,glycan array binding signal (z-score),[6],-0.303
same,glycan array binding signal (z-score),[7],-0.408
same,glycan array binding signal (z-score),[8],-0.384
same,glycan array binding signal (z-score),[9],-0.445
same,glycan array binding signal (z-score),[10],-0.313
same,glycan array binding signal (z-score),[11],-0.342
same,glycan array binding signal (z-score),[12],-0.46
same,glycan array binding signal (z-score),[13],1.56
same,glycan array binding signal (z-score),[14],0.541
same,glycan array binding signal (z-score),[15],-0.479
same,glycan array binding signal (z-score),[16],-0.369
same,glycan array binding signal (z-score),[17],-0.208
same,glycan array binding signal (z-score),[18],-0.333
same,glycan array binding signal (z-score),[19],-0.452
same,glycan array binding signal (z-score),[20],-0.415
same,glycan array binding signal (z-score),[21],-0.449
same,glycan array binding signal (z-score),[22],-0.386
same,glycan array binding signal (z-score),[23],-0.463
same,glycan array binding signal (z-score),[24],-0.366
same,glycan array binding signal (z-score),[25],-0.304
same,glycan array binding signal (z-score),[26],-0.444
same,glycan array binding signal (z-score),GlcNAc(b1-3)Fuc,-0.37
same,glycan array binding signal (z-score),GlcNAc(b1-3)Gal,-0.394
same,glycan array binding signal (z-score),[27],-0.418
